# Source: the supplement of paper PMC8728848
# Some of the results follow.
# Assays:
# Test in all cases: glycan array binding signal (z-score within array); higher = stronger binding
# Conditions in all cases: glycan notation: IUPAC condensed, linker removed
# Gal6S(b1-4)Glc6S = biological target: Gal6S(b1-4)Glc6S
# Outline: (§1)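 Columns mapping to the same glycan were averaged after glycan names were converted to IUPAC-condensed notation. The data come from 3228 arrays in the Consortium for Functional Glycomics database, limited to those with an available protein sequence. Binding is reported as a within-array Z-score averaged across arrays of one protein sequence and across linkers.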
# Gal6S(b1-4)GlcNAc = biological target: Gal6S(b1-4)GlcNAc
# Outline: as §1
# Gal6S(b1-4)GlcNAc6S = biological target: Gal6S(b1-4)GlcNAc6S
# Outline: as §1
# GalNAc(a1-3)Gal = biological target: GalNAc(a1-3)Gal
# Outline: as §1
# GalNAc(a1-3)GalNAc = biological target: GalNAc(a1-3)GalNAc
# Outline: as §1
# [1] = biological target: GalNAc(a1-3)GalNAc(b1-3)Gal(a1-4)Gal(b1-4)Glc
# Outline: as §1
# [2] = biological target: GalNAc(a1-3)GalNAc(b1-3)Gal(a1-4)Gal(b1-4)GlcNAc
# Outline: as §1
# GalNAc(b1-3)Gal = biological target: GalNAc(b1-3)Gal
# Outline: as §1
# [3] = biological target: GalNAc(b1-3)Gal(a1-4)Gal(b1-4)GlcNAc
# Outline: as §1
# [4] = biological target: GalNAc(b1-3)Gal(a1-4)Gal(b1-4)GlcNAc(b1-3)Gal(b1-4)Glc
# Outline: as §1
# [5] = biological target: GalNAc(b1-3)Gal(a1-6)Gal(b1-4)Glc
# Outline: as §1
# GalNAc(b1-3)GalNAc = biological target: GalNAc(b1-3)GalNAc
# Outline: as §1
# GalNAc(b1-3)GlcNAc = biological target: GalNAc(b1-3)GlcNAc
# Outline: as §1
# GalNAc(b1-4)Gal(b1-4)Glc = biological target: GalNAc(b1-4)Gal(b1-4)Glc
# Outline: as §1
# GalNAc(b1-4)GlcNAc = biological target: GalNAc(b1-4)GlcNAc
# Outline: as §1
# [6] = biological target: GalNAc(b1-4)GlcNAc(b1-2)Man
# Outline: as §1
# [7] = biological target: GalNAc(b1-4)GlcNAc(b1-2)Man(a1-3)[GalNAc(b1-4)GlcNAc(b1-2)Man(a1-6)]Man(b1-4)GlcNAc(b1-4)GlcNAc
# Outline: as §1
# [8] = biological target: GalNAc(b1-4)GlcNAc(b1-3)GalNAc(b1-4)GlcNAc
# Outline: as §1
# GalNAc(b1-4)GlcNAc6S = biological target: GalNAc(b1-4)GlcNAc6S
# Outline: as §1
# GalNAc(b1-6)GalNAc = biological target: GalNAc(b1-6)GalNAc
# Outline: as §1
# GalNAc3S(b1-4)GlcNAc = biological target: GalNAc3S(b1-4)GlcNAc
# Outline: as §1
# GalNAc3S(b1-4)GlcNAc3S = biological target: GalNAc3S(b1-4)GlcNAc3S
# Outline: as §1
# [9] = biological target: GalNAc3S(b1-4)[Fuc(a1-3)]GlcNAc
# Outline: as §1
# GalNAc4S6S(b1-4)GlcNAc = biological target: GalNAc4S6S(b1-4)GlcNAc
# Outline: as §1
# GalNAc6S(b1-4)GlcNAc = biological target: GalNAc6S(b1-4)GlcNAc
# Outline: as §1
# Glc(a1-4)Glc = biological target: Glc(a1-4)Glc
# Outline: as §1
# [10] = biological target: Glc(a1-4)Glc(a1-4)Glc(a1-4)Glc
# Outline: as §1
# Glc(a1-6)Glc(a1-6)Glc = biological target: Glc(a1-6)Glc(a1-6)Glc
# Outline: as §1
# [11] = biological target: Glc(a1-6)Glc(a1-6)Glc(a1-6)Glc
# Outline: as §1
# Glc(b1-4)Glc = biological target: Glc(b1-4)Glc
# Outline: as §1
# Glc(b1-6)Glc = biological target: Glc(b1-6)Glc
# Outline: as §1
# GlcA(b1-3)Gal = biological target: GlcA(b1-3)Gal
# Outline: as §1
# GlcA(b1-3)GlcNAc = biological target: GlcA(b1-3)GlcNAc
# Outline: as §1
# GlcA(b1-6)Gal = biological target: GlcA(b1-6)Gal
# Outline: as §1
# [12] = biological target: GlcA3S(b1-3)Gal(b1-4)GlcNAc(b1-2)Man
# Outline: as §1
# [13] = biological target: GlcA3S(b1-3)Gal(b1-4)GlcNAc(b1-3)Gal(b1-4)Glc
# Outline: as §1
# [14] = biological target: GlcNAc(a1-3)Gal(b1-4)GlcNAc
# Outline: as §1
binder,measurement,setting,value
PX9961X-pdi-531-24-531 (Parabacteroides distasonis) (protein) DLTEEIHSSVIAENYYNNAGEVMAAMMRPWGHFCGTMQVAQSPWSCNELSSDCAAWPQKGRHGYDNGDWIRLHRHQWIPTDGQVVDAWKKLFEGIGYANNFLTDTENIDFEALQVPMSKAQAQAEMRVYRAYCYWYVMDMFGTAPICEKIGEINPSSKSRAELFAWIEKELNESIPSLSESKTETYGRVSKWGAYALLARLYLNAEIYTGQARWDDCIAACDELAKGGFALDKKWNDTFRADNDKRSTEIIWSIVYDEVYAKGMGWYQRWLHYAHQTGWDLQSGPWNGLVTQPTFYDSFADNDLRKIEGFLIGKQYPRKVDENGNYYYDTTAEPLKGSEEYNGQDLVFVNYIKSMTEGEENSGARSIKYEIQPGTTGDMNNDWVMFRYSEVIYNKAEALMRKNGGKATQEVVDMINSVRQRSFKAEDWEKAKYTTATLTMDEFLAEKGREFAFEGIRRTDLVRFNKFVTTSWWDKTASNEPKRNIFPIPQRQLDANANLSPNEANSLF,glycan array binding signal (z-score),Gal6S(b1-4)Glc6S,0.03
same,glycan array binding signal (z-score),Gal6S(b1-4)GlcNAc,0.29
same,glycan array binding signal (z-score),Gal6S(b1-4)GlcNAc6S,-0.681
same,glycan array binding signal (z-score),GalNAc(a1-3)Gal,0.96
same,glycan array binding signal (z-score),GalNAc(a1-3)GalNAc,0.11
same,glycan array binding signal (z-score),[1],-0.276
same,glycan array binding signal (z-score),[2],0.213
same,glycan array binding signal (z-score),GalNAc(b1-3)Gal,0.101
same,glycan array binding signal (z-score),[3],-0.236
same,glycan array binding signal (z-score),[4],-0.234
same,glycan array binding signal (z-score),[5],2.61
same,glycan array binding signal (z-score),GalNAc(b1-3)GalNAc,-0.252
same,glycan array binding signal (z-score),GalNAc(b1-3)GlcNAc,-0.514
same,glycan array binding signal (z-score),GalNAc(b1-4)Gal(b1-4)Glc,-0.106
same,glycan array binding signal (z-score),GalNAc(b1-4)GlcNAc,0.402
same,glycan array binding signal (z-score),[6],0.102
same,glycan array binding signal (z-score),[7],-0.009
same,glycan array binding signal (z-score),[8],-0.57
same,glycan array binding signal (z-score),GalNAc(b1-4)GlcNAc6S,0.06
same,glycan array binding signal (z-score),GalNAc(b1-6)GalNAc,-0.615
same,glycan array binding signal (z-score),GalNAc3S(b1-4)GlcNAc,-0.462
same,glycan array binding signal (z-score),GalNAc3S(b1-4)GlcNAc3S,-0.224
same,glycan array binding signal (z-score),[9],-0.766
same,glycan array binding signal (z-score),GalNAc4S6S(b1-4)GlcNAc,-0.467
same,glycan array binding signal (z-score),GalNAc6S(b1-4)GlcNAc,1.68
same,glycan array binding signal (z-score),Glc(a1-4)Glc,0.021
same,glycan array binding signal (z-score),[10],-0.421
same,glycan array binding signal (z-score),Glc(a1-6)Glc(a1-6)Glc,-0.319
same,glycan array binding signal (z-score),[11],0.235
same,glycan array binding signal (z-score),Glc(b1-4)Glc,-0.369
same,glycan array binding signal (z-score),Glc(b1-6)Glc,-0.278
same,glycan array binding signal (z-score),GlcA(b1-3)Gal,0.066
same,glycan array binding signal (z-score),GlcA(b1-3)GlcNAc,-0.617
same,glycan array binding signal (z-score),GlcA(b1-6)Gal,-0.549
same,glycan array binding signal (z-score),[12],-0.634
same,glycan array binding signal (z-score),[13],1.17
same,glycan array binding signal (z-score),[14],-0.744
